{"source": "the supplement of paper PMC10126150", "note": "Sequences with one replicate were seen in a single cluster, so their values are uncertain.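 Also: ATP exposure 15 min at 22 °C before imaging.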"}
{"test_system": "ATP", "test": "switch fluorescence ratio, 500 uM ATP over buffer (Cy3 cluster intensity, sum of 5 cycles each) (fold (ratio)); higher = stronger signal-on switching upon ATP binding; sequences stand for … in TCGTCGGCAGCGTCAGATGTGTATAAGAGACAGTTTTTTTTTTTTTTTTTTTTTTTTT…TC", "details": "aptamer strand: ATP DNA aptamer (quencher-CACCTGGGGGAGTATTGCGGAGGAAGG + anchor), 100 nM annealed; ATP concentration: 500 uM; one replicate", "how_it_was_run": "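Between each of five buffer/ATP cycles, the flow-cell was stripped with NaOH and re-annealed. Each cycle imaged Cy3-labelled switching-strand clusters, annealed to 100 nM quencher-labelled ATP aptamer on a modified Illumina MiSeq flow-cell, first in selection buffer and then after 15 min with 500 uM ATP at 22 °C. The fluorescence ratio is summed target-cycle over summed buffer-cycle Cy3 intensity per cluster, averaged per switch-domain sequence, with clusters outside 100-1000 RFU excluded.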"}
{"sequence": "GTGTAGTGAC", "switch fluorescence ratio": 1.03}
{"sequence": "GTGTATACTG", "switch fluorescence ratio": 0.988}
{"sequence": "GTGTATAGCC", "switch fluorescence ratio": 0.988}
{"sequence": "GTGTATGGGT", "switch fluorescence ratio": 0.993}
{"sequence": "GTGTATGTAT", "switch fluorescence ratio": 1.03}
{"sequence": "GTGTATTATG", "switch fluorescence ratio": 0.99}
{"sequence": "GTGTATTGAC", "switch fluorescence ratio": 1}
{"sequence": "GTGTATTGGA", "switch fluorescence ratio": 1}
{"sequence": "GTGTATTTTC", "switch fluorescence ratio": 0.985}
{"sequence": "GTGTCAGGCC", "switch fluorescence ratio": 0.997}
{"sequence": "GTGTCATAGA", "switch fluorescence ratio": 0.996}
{"sequence": "GTGTCCCTG", "switch fluorescence ratio": 1.03}
{"sequence": "GTGTCGATGA", "switch fluorescence ratio": 1.01}
{"sequence": "GTGTCTCACA", "switch fluorescence ratio": 0.98}
{"sequence": "GTGTGAATGG", "switch fluorescence ratio": 1.02}
{"sequence": "GTGTGAGTAC", "switch fluorescence ratio": 0.953}
{"sequence": "GTGTGATACT", "switch fluorescence ratio": 1.11}
{"sequence": "GTGTGCGTTG", "switch fluorescence ratio": 0.963}
{"sequence": "GTGTGGACGT", "switch fluorescence ratio": 0.947}
{"sequence": "GTGTGTCGTA", "switch fluorescence ratio": 0.956}
{"sequence": "GTGTGTTCAA", "switch fluorescence ratio": 0.994}
{"sequence": "GTGTTACAGG", "switch fluorescence ratio": 1.02}
{"sequence": "GTGTTACTGG", "switch fluorescence ratio": 1.03}
{"sequence": "GTGTTCAGGC", "switch fluorescence ratio": 1}
{"sequence": "GTGTTCCCCG", "switch fluorescence ratio": 1.1}
{"sequence": "GTGTTCGGTT", "switch fluorescence ratio": 0.959}
{"sequence": "GTGTTCTTCA", "switch fluorescence ratio": 0.976}
{"sequence": "GTGTTGATTG", "switch fluorescence ratio": 0.98}
{"sequence": "GTGTTTGACG", "switch fluorescence ratio": 1}
{"sequence": "GTTAACCTG", "switch fluorescence ratio": 1.07}
{"sequence": "GTTAACGCG", "switch fluorescence ratio": 1}
{"sequence": "GTTAATATTC", "switch fluorescence ratio": 1.03}
{"sequence": "GTTAATCGGA", "switch fluorescence ratio": 0.993}
{"sequence": "GTTAATGCCT", "switch fluorescence ratio": 1.01}
{"sequence": "GTTAATGTAG", "switch fluorescence ratio": 0.975}
{"sequence": "GTTAATGTGT", "switch fluorescence ratio": 0.982}
{"sequence": "GTTACAGTTG", "switch fluorescence ratio": 0.992}
{"sequence": "GTTACATAGG", "switch fluorescence ratio": 1.01}
{"sequence": "GTTACATGGG", "switch fluorescence ratio": 1.05}
{"sequence": "GTTACGAGCA", "switch fluorescence ratio": 1.01}
{"sequence": "GTTACGTGGA", "switch fluorescence ratio": 1.09}
{"sequence": "GTTACGTTCC", "switch fluorescence ratio": 2.3}
{"sequence": "GTTACTACTC", "switch fluorescence ratio": 1.06}
{"sequence": "GTTACTCGTG", "switch fluorescence ratio": 1.02}
{"sequence": "GTTACTGCGA", "switch fluorescence ratio": 1.09}
{"sequence": "GTTACTGGCT", "switch fluorescence ratio": 0.984}
{"sequence": "GTTACTTCA", "switch fluorescence ratio": 0.986}
{"sequence": "GTTAGAAAGT", "switch fluorescence ratio": 0.955}
{"sequence": "GTTAGATGCC", "switch fluorescence ratio": 0.993}
{"sequence": "GTTAGATGG", "switch fluorescence ratio": 1.06}
{"sequence": "GTTAGCCCGT", "switch fluorescence ratio": 0.997}
{"sequence": "GTTAGGCATC", "switch fluorescence ratio": 1.03}
{"sequence": "GTTAGGCTAG", "switch fluorescence ratio": 1.01}
{"sequence": "GTTAGGGGGC", "switch fluorescence ratio": 1.02}
{"sequence": "GTTAGTAGTT", "switch fluorescence ratio": 1.02}
{"sequence": "GTTAGTTTAC", "switch fluorescence ratio": 1.01}
{"sequence": "GTTATACACC", "switch fluorescence ratio": 1.18}
{"sequence": "GTTATCAGTG", "switch fluorescence ratio": 0.964}
{"sequence": "GTTATCCTG", "switch fluorescence ratio": 0.975}
{"sequence": "GTTATCGGGA", "switch fluorescence ratio": 0.965}
{"sequence": "GTTATCGGTA", "switch fluorescence ratio": 0.977}
{"sequence": "GTTATCTTTT", "switch fluorescence ratio": 0.959}
{"sequence": "GTTATGGTAG", "switch fluorescence ratio": 1}
{"sequence": "GTTATTACCA", "switch fluorescence ratio": 1.01}
{"sequence": "GTTATTCGAC", "switch fluorescence ratio": 0.99}
{"sequence": "GTTCAAAGGC", "switch fluorescence ratio": 1.03}
{"sequence": "GTTCAAAGGG", "switch fluorescence ratio": 0.985}
{"sequence": "GTTCAAGCTC", "switch fluorescence ratio": 0.998}
{"sequence": "GTTCACAGGG", "switch fluorescence ratio": 1.02}
{"sequence": "GTTCAGCATT", "switch fluorescence ratio": 1.1}
{"sequence": "GTTCATGACA", "switch fluorescence ratio": 0.986}
{"sequence": "GTTCATGTCG", "switch fluorescence ratio": 1.04}
{"sequence": "GTTCCAACAC", "switch fluorescence ratio": 1.01}
{"sequence": "GTTCCAGGAG", "switch fluorescence ratio": 1.3}
{"sequence": "GTTCCCTTCA", "switch fluorescence ratio": 1.21}
{"sequence": "GTTCCGAGG", "switch fluorescence ratio": 1.23}
{"sequence": "GTTCCGGATG", "switch fluorescence ratio": 1.02}
{"sequence": "GTTCCGGGCG", "switch fluorescence ratio": 0.975}
{"sequence": "GTTCCTGGTG", "switch fluorescence ratio": 2.66}
{"sequence": "GTTCGAACGT", "switch fluorescence ratio": 1.02}
{"sequence": "GTTCGAACTA", "switch fluorescence ratio": 0.997}
{"sequence": "GTTCGAGAAT", "switch fluorescence ratio": 0.989}
{"sequence": "GTTCGAGCAT", "switch fluorescence ratio": 1.04}
{"sequence": "GTTCGCGCAT", "switch fluorescence ratio": 1.13}
{"sequence": "GTTCGCTAGT", "switch fluorescence ratio": 0.966}
{"sequence": "GTTCGGCTA", "switch fluorescence ratio": 0.995}
{"sequence": "GTTCGGGCCG", "switch fluorescence ratio": 1.06}
{"sequence": "GTTCGTGAAT", "switch fluorescence ratio": 0.994}
{"sequence": "GTTCTAACTT", "switch fluorescence ratio": 1.01}
{"sequence": "GTTCTAATAT", "switch fluorescence ratio": 0.973}
{"sequence": "GTTCTACGTT", "switch fluorescence ratio": 1}
{"sequence": "GTTCTACTTC", "switch fluorescence ratio": 0.987}
{"sequence": "GTTCTATTAC", "switch fluorescence ratio": 1.02}
{"sequence": "GTTCTATTTG", "switch fluorescence ratio": 1.05}
{"sequence": "GTTCTCAGA", "switch fluorescence ratio": 0.982}
{"sequence": "GTTCTCCGTC", "switch fluorescence ratio": 1.16}
{"sequence": "GTTCTCTTCG", "switch fluorescence ratio": 1.01}
{"sequence": "GTTCTGCGGG", "switch fluorescence ratio": 0.986}
{"sequence": "GTTCTTGCTG", "switch fluorescence ratio": 0.987}
{"sequence": "GTTCTTTGGT", "switch fluorescence ratio": 0.965}
{"sequence": "GTTCTTTTGT", "switch fluorescence ratio": 0.958}
{"sequence": "GTTGAATCGT", "switch fluorescence ratio": 0.988}
{"sequence": "GTTGACTAGA", "switch fluorescence ratio": 0.983}
{"sequence": "GTTGAGTA", "switch fluorescence ratio": 0.979}
{"sequence": "GTTGAGTCTG", "switch fluorescence ratio": 0.993}
{"sequence": "GTTGAGTTAG", "switch fluorescence ratio": 0.998}
{"sequence": "GTTGATTTCG", "switch fluorescence ratio": 1.09}
{"sequence": "GTTGCAAGTT", "switch fluorescence ratio": 0.963}
{"sequence": "GTTGCAATTA", "switch fluorescence ratio": 1.06}
{"sequence": "GTTGCACGCT", "switch fluorescence ratio": 0.999}
{"sequence": "GTTGCATGGC", "switch fluorescence ratio": 1.05}
{"sequence": "GTTGCCGCCT", "switch fluorescence ratio": 1.01}
{"sequence": "GTTGCCTGAA", "switch fluorescence ratio": 1}
{"sequence": "GTTGCGGGTC", "switch fluorescence ratio": 0.996}
{"sequence": "GTTGCTG", "switch fluorescence ratio": 1.05}
{"sequence": "GTTGCTGCAT", "switch fluorescence ratio": 1.04}
{"sequence": "GTTGCTGGAA", "switch fluorescence ratio": 0.993}
{"sequence": "GTTGGAAATT", "switch fluorescence ratio": 0.997}
{"sequence": "GTTGGAGCGG", "switch fluorescence ratio": 0.972}
{"sequence": "GTTGGCATAC", "switch fluorescence ratio": 2}
{"sequence": "GTTGGGAAAC", "switch fluorescence ratio": 1.04}
{"sequence": "GTTGGGGTCC", "switch fluorescence ratio": 1.03}
{"sequence": "GTTGGTAGTT", "switch fluorescence ratio": 0.956}
{"sequence": "GTTGGTTTGA", "switch fluorescence ratio": 1}
{"sequence": "GTTGTAAAGC", "switch fluorescence ratio": 1.02}
{"sequence": "GTTGTAGTGC", "switch fluorescence ratio": 1.14}
{"sequence": "GTTGTCAGCC", "switch fluorescence ratio": 1.01}
{"sequence": "GTTGTCATCA", "switch fluorescence ratio": 1}
{"sequence": "GTTGTCGCGC", "switch fluorescence ratio": 1.04}
{"sequence": "GTTGTCTACG", "switch fluorescence ratio": 0.972}
{"sequence": "GTTGTCTCCC", "switch fluorescence ratio": 0.99}
{"sequence": "GTTGTTGGAT", "switch fluorescence ratio": 1.01}
{"sequence": "GTTGTTTGCC", "switch fluorescence ratio": 1.01}
{"sequence": "GTTGTTTGGC", "switch fluorescence ratio": 1.01}
{"sequence": "GTTTAAAAAC", "switch fluorescence ratio": 1.12}
{"sequence": "GTTTAACGGC", "switch fluorescence ratio": 1.05}
{"sequence": "GTTTAAGATG", "switch fluorescence ratio": 0.98}
{"sequence": "GTTTAATCGA", "switch fluorescence ratio": 1.01}
{"sequence": "GTTTACACC", "switch fluorescence ratio": 1.02}
{"sequence": "GTTTACAGC", "switch fluorescence ratio": 0.986}
{"sequence": "GTTTACCCGT", "switch fluorescence ratio": 1.01}
{"sequence": "GTTTACTTT", "switch fluorescence ratio": 1.03}
{"sequence": "GTTTAGGACT", "switch fluorescence ratio": 0.965}
{"sequence": "GTTTAGGCAC", "switch fluorescence ratio": 1.01}
{"sequence": "GTTTAGTCGT", "switch fluorescence ratio": 0.967}
{"sequence": "GTTTATTCGT", "switch fluorescence ratio": 0.983}
{"sequence": "GTTTCAGGGT", "switch fluorescence ratio": 0.984}
{"sequence": "GTTTCATTGG", "switch fluorescence ratio": 1.03}
{"sequence": "GTTTCCGGGA", "switch fluorescence ratio": 1.19}
{"sequence": "GTTTCCTTAG", "switch fluorescence ratio": 0.973}
{"sequence": "GTTTCGTTA", "switch fluorescence ratio": 0.992}
{"sequence": "GTTTCTAACG", "switch fluorescence ratio": 1.03}
{"sequence": "GTTTCTAAGG", "switch fluorescence ratio": 0.978}
